Some of the results follow. At the low end of the ranking, values are background and their order means little.

This experiment addresses GST-SBP-SLBP (stem-loop binding protein) (UniProt Q14493). In words: targeted RNA Bind-n-Seq.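 Note: DESeq read counts versus GST-SBP nonspecific binding control pulldown.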 The conditions noted are these: RBNS binding buffer: 25 mM Tris pH 7.5, 150 mM KCl, 3 mM MgCl2, 0.1% Tween, 0.5 mg/mL BSA, 1 mM DTT; 27 nM protein, 750 pM RNA pool; temperature not stated; high values mean tight binding.
With “GGUCACGUCUCAAUCAACUCUACUUCCAGGGAAAACCCUGGCGUUUUCAACAGCUCGCAGUCAAG”, the binding signal (log2 fold change) was -0.105.
Regarding “GGUCACGUCUCAAUCAACUCAGUCCCAGGAGUUUCCUCCUGCUUAUUCAACAGCUCGCAGUCAAG”, the binding signal (log2 fold change) turned out to be 0.0849.
Consider “GGUCACGUCUCAAUCAACUCUAUAGAGGGGGGGAAAACCCCUUUGCCCUCAUUCUCAACAGCUCGCAGUCAAG”, for which the binding signal (log2 fold change) was -0.173.
On to “GGUCACGUCUCAAUCAACUCUUUUCCCAGGGAAAACCCUGGCUAAUUCAACAGCUCGCAGUCAAG”, for which the binding signal (log2 fold change) is -0.00131.
To “GGUCACGUCUCAAUCAACUCUUAAGAGGGGGGGAAAACCCCUUUGCCCUCGAAUUCAACAGCUCGCAGUCAAG” belongs -0.0626.
Regarding “GGUCACGUCUCAAUCAACUCACACGAGGGGGGGAAAACCCCUUUGCCCUCAUCAUCAACAGCUCGCAGUCAAG”, the binding signal (log2 fold change) was -0.0419.
As to “GGUCACGUCUCAAUCAACUCAACUUCCAGGGAAACCCCUGGCAUAUUCAACAGCUCGCAGUCAAG”, the binding signal (log2 fold change) stood at 0.259.
In the case of “GGUCACGUCUCAAUCAACUCAAUUCCCAGGGAAAUCCCUGGUAUUCUCAACAGCUCGCAGUCAAG”, the binding signal (log2 fold change) is -0.109.
In the case of “GGUCACGUCUCAAUCAACUCUUCGCCAGGAGUUUUCUCCUGCAUAUUCAACAGCUCGCAGUCAAG” it was 0.000575; in that of “GGUCACGUCUCAAUCAACUCUACUUCCAGGGAAACCCCUGGUUUUCUCAACAGCUCGCAGUCAAG”, -0.122; in that of “GGUCACGUCUCAAUCAACUCAUCUUCCAGGGAAAUCCCUGGCGUUUUCAACAGCUCGCAGUCAAG”, -0.0822.
To “GGUCACGUCUCAAUCAACUCUAUCUCAGGAGUUUUCUCCUGCUAUCUCAACAGCUCGCAGUCAAG” belongs 0.12.
Consider “GGUCACGUCUCAAUCAACUCAAUCGAGGGGGGGAAAACCCCUUUACCCUCAUCCUCAACAGCUCGCAGUCAAG”, for which the binding signal (log2 fold change) is -0.0574.
Regarding “GGUCACGUCUCAAUCAACUCAUUCUCCAGGGAAAUCCCUGGUAUACUCAACAGCUCGCAGUCAAG”, the binding signal (log2 fold change) is -0.0596.
In the case of “GGUCACGUCUCAAUCAACUCUAUGGAGGGGGGGAAAACCCCUUUACCCUCAAUCUCAACAGCUCGCAGUCAAG” it was 0.0189.
As for “GGUCACGUCUCAAUCAACUCAUCUCCCAGGGAAACCCCUGGCUAUUUCAACAGCUCGCAGUCAAG”, the binding signal (log2 fold change) is -0.131.
Regarding “GGUCACGUCUCAAUCAACUCUAAAGAGGGGGGGAAAACCCCUUUACCCUCACUAUCAACAGCUCGCAGUCAAG”, the binding signal (log2 fold change) is -0.214.
In the case of “GGUCACGUCUCAAUCAACUCUAUCUCAGGAGUUUACUCCUGCUUUUUCAACAGCUCGCAGUCAAG”, the binding signal (log2 fold change) was found to be 0.0698.
For the sequence “GGUCACGUCUCAAUCAACUCUAUUCCCAGGGAAACCCCUGGUUUACUCAACAGCUCGCAGUCAAG”, the binding signal (log2 fold change) is 0.0996.
As for “GGUCACGUCUCAAUCAACUCUUAAGAGGGGGGGAAAACCCCUUUACCCUCAACGUCAACAGCUCGCAGUCAAG”, the binding signal (log2 fold change) is 0.385.
Regarding “GGUCACGUCUCAAUCAACUCUAUCCCAGGAGUUUUCUCCUGCAUACUCAACAGCUCGCAGUCAAG”, the binding signal (log2 fold change) is -0.0205.
On to “GGUCACGUCUCAAUCAACUCACACGAGGGGGGGAAAACCCCUUUACCCUCUACCUCAACAGCUCGCAGUCAAG”, for which the binding signal (log2 fold change) is 0.472.
Take “GGUCACGUCUCAAUCAACUCUAAAGAGGGGGGGAAAACCCCUUUGCCCUCAUCAUCAACAGCUCGCAGUCAAG”: the binding signal (log2 fold change) turned out to be 0.172.
With “GGUCACGUCUCAAUCAACUCAACGGAGGGGGGGAAAACCCCUUUACCCUCAACAUCAACAGCUCGCAGUCAAG”, the binding signal (log2 fold change) came to 0.308.
In the case of “GGUCACGUCUCAAUCAACUCAUCUUCCAGGGAAAGCCCUGGUAUACUCAACAGCUCGCAGUCAAG”, the binding signal (log2 fold change) was determined as 0.00493.
“GGUCACGUCUCAAUCAACUCUAUUCCAGGAGUUUACUCCUGUUUACUCAACAGCUCGCAGUCAAG”: the binding signal (log2 fold change) was -0.147.
Take “GGUCACGUCUCAAUCAACUCUUCUCCAGGAGUUUUCUCCUGCUUACUCAACAGCUCGCAGUCAAG”: the binding signal (log2 fold change) was 0.142.
As for “GGUCACGUCUCAAUCAACUCAAUUCCCAGGGAAACCCCUGGCAUACUCAACAGCUCGCAGUCAAG”, the binding signal (log2 fold change) is -0.304.
“GGUCACGUCUCAAUCAACUCAUCCCCAGGAGUUUCCUCCUGCUUAUUCAACAGCUCGCAGUCAAG”: the binding signal (log2 fold change) came to 0.142.
To “GGUCACGUCUCAAUCAACUCAGUCUCCAGGGAAACCCCUGGUUUAUUCAACAGCUCGCAGUCAAG” belongs 0.458.
For “GGUCACGUCUCAAUCAACUCAUCGUCCAGGGAAAUCCCUGGCAAAUUCAACAGCUCGCAGUCAAG”, the binding signal (log2 fold change) is -0.168.
Take “GGUCACGUCUCAAUCAACUCAACUCCAGGAGUUUUCUCCUGCAAUCUCAACAGCUCGCAGUCAAG”: the binding signal (log2 fold change) was found to be 0.0107.
With “GGUCACGUCUCAAUCAACUCUUCCUCCAGGGAAACCCCUGGCUUAUUCAACAGCUCGCAGUCAAG”, the binding signal (log2 fold change) was -0.0269.
Turning to “GGUCACGUCUCAAUCAACUCUUCCCCCAGGGAAAACCCUGGUUAUCUCAACAGCUCGCAGUCAAG”, the binding signal (log2 fold change) is -0.0464.
Turning to “GGUCACGUCUCAAUCAACUCUUUUUCCAGGGAAAGCCCUGGUAGUCUCAACAGCUCGCAGUCAAG”, the binding signal (log2 fold change) was -0.207.
As to “GGUCACGUCUCAAUCAACUCAAUCCCAGGAGUUUCCUCCUGUUUUUUCAACAGCUCGCAGUCAAG”, the binding signal (log2 fold change) amounted to 0.312.
Turning to “GGUCACGUCUCAAUCAACUCAUCCUCCAGGGAAACCCCUGGCUUUUUCAACAGCUCGCAGUCAAG”, the binding signal (log2 fold change) was -0.0194.
With “GGUCACGUCUCAAUCAACUCUUCUCCAGGAGUUUACUCCUGUAAAUUCAACAGCUCGCAGUCAAG”, the binding signal (log2 fold change) stood at 0.064.
On to “GGUCACGUCUCAAUCAACUCUCCGGAGGGGGGGAAAACCCCUUUACCCUCAUUAUCAACAGCUCGCAGUCAAG”, for which the binding signal (log2 fold change) was -0.313.
Take “GGUCACGUCUCAAUCAACUCAGUUCCAGGAGUUUACUCCUGCAUAUUCAACAGCUCGCAGUCAAG”: the binding signal (log2 fold change) is -0.265.
As to “GGUCACGUCUCAAUCAACUCAUAGGAGGGGGGGAAAACCCCUUUACCCUCAUCGUCAACAGCUCGCAGUCAAG”, the binding signal (log2 fold change) was found to be 0.28.
As for “GGUCACGUCUCAAUCAACUCUAUCUCCAGGGAAAUCCCUGGCUAAUUCAACAGCUCGCAGUCAAG”, the binding signal (log2 fold change) stood at 0.124.
To “GGUCACGUCUCAAUCAACUCAACUCCCAGGGAAAUCCCUGGUAAACUCAACAGCUCGCAGUCAAG” belongs -0.0462; to “GGUCACGUCUCAAUCAACUCAUUCUCCAGGGAAAGCCCUGGCUUAGUCAACAGCUCGCAGUCAAG”, 0.106.
To “GGUCACGUCUCAAUCAACUCCCAAGAGGGGGGGAAAACCCCUUUACCCUCCCAUUCAACAGCUCGCAGUCAAG” belongs 0.0861; to “GGUCACGUCUCAAUCAACUCUAUCCCCAGGGAAAUCCCUGGUUUAUUCAACAGCUCGCAGUCAAG”, -0.329.
In the case of “GGUCACGUCUCAAUCAACUCAACGCCAGGAGUUUUCUCCUGUAAAUUCAACAGCUCGCAGUCAAG”, the binding signal (log2 fold change) was 0.0987.

Source of the values: publication PMC5892938.
